Test results reported in PubChem BioAssay AID588855 (National Center for Advancing Translational Sciences (NCATS), 2011).
In all, about 410,000 compounds went through this assay and about 5,000 (1.2%) were called active. The inconclusive results got no clear call from the source; some entries with a clear call stand among them for comparison. Calls come from the whole dose curve; as a rule, active = well fitted inhibition curve with a large enough effect; inconclusive = small, poorly fitted or top-dose-only effect; inactive = no such curve, though single readings can be large or run the other way. Potencies beside an inconclusive call are fits to weak or partial responses and may not hold up.

Test: qHTS for Inhibitors of TGF-b; note: nearly all actives have a fitted effect of over 65% in size
Settings: HepG2 CAGA-GFP TGF-b/SMAD3 reporter, GFP fluorescence, 18 h, TGF-beta stimulated, 500 pg/mL final; series mostly up to 46.1 µM; activity, negative = inhibition: at the top concentration
Outline: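 TGF-beta reporter screen: HEPG2 CAGA-GFP, 1% FBS, 500 pg/mL TGF-beta final, 18 h; per-cell GFP summed per well; curves fitted and categorized by class.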
% is set by controls: 0 for no effect and ±100 for the full control effect; potency is the fitted concentration of half-maximal effect; tags give direction and shape of the fitted curve.

SMILES | Potency | activity, negative = inhibition
CCOC(=O)c1cc2c(=O)n3ccccc3nc2n(CC(C)C)c1=NC(=O)C(C)Oc1ccccc1 (stereo not drawn) | inconclusive: 5.62 µM [inhibitor, single point] | –
O=c1c2c3nc4ccccc4nc3n(Cc3ccccc3)c2ncn1Cc1ccco1 | inconclusive: 35.5 µM [inhibitor, single point] | –
Cc1cccc(NC(=S)NNC(=O)c2nn(C)cc2Cl)c1 | – | inactive: -1.29%
CC(C)(CN1CCOCC1)NS(=O)(=O)c1ccccc1 | inconclusive: 3.98 µM [inhibitor, full curve, poor fit] | –
COc1ccc(Oc2ccc(N/C=C/C(=O)C(C)(C)C)cc2)cc1 | – | inactive: -27.2%
COc1ccc(CCN(Cc2cc3cc(C)cc(C)c3nc2Cl)C(=O)C2CC2)cc1 | inconclusive: 3.55 µM [inhibitor, partial curve] | –
COc1ccc(-c2nsc(NC(=O)c3ccccc3Br)n2)cc1 | inconclusive: 3.16 µM [inhibitor, partial curve, poor fit] | –
O=C(/C=C/c1ccccc1)Nc1ncn[nH]1 | active: 10 µM | –
CCCc1ccc(Oc2cc(N3CCOCC3)nc(-c3ccccc3)n2)cc1 | – | inactive: 10.6%
OC(c1ccc(F)c(F)c1)c1ncc(-c2cccc(C(F)(F)F)c2)[nH]1 (stereo not drawn) | inconclusive: 22.4 µM [inhibitor, single point] | –
O=C(CSc1ncn[nH]1)CSc1ncn[nH]1 | – | inactive: -18.8%
Cc1ccccc1NC(=O)Cn1c(=O)n(CCCCCC(=O)NCc2ccc3c(c2)OCO3)c(=O)c2sccc21 | inconclusive: 14.1 µM [inhibitor, single point] | –
COCCNC(=O)c1c(N)n(/N=C/c2ccc(F)cc2)c2nc3ccccc3nc12 | – | inactive: -0.514%
COc1ccc(-c2cc(C(=O)N3CCN(S(=O)(=O)c4ccc(C)cc4)CC3)[nH]n2)cc1 | inconclusive: 3.55 µM [inhibitor, single point] | –
O=C1c2ccccc2-c2nnc(-c3ccccc3)cc21 | – | inactive: 10.2%
CCOC(=O)Cc1c(C)nc2c(-c3ccc(Cl)cc3)c[nH]n2c1=O | inconclusive: 3.16 µM [inhibitor, partial curve, poor fit] | –
O=C(NCC(c1cccnc1)N1CCN(c2ccc(F)cc2)CC1)c1ccc(F)cc1 (stereo not drawn) | – | inactive: 3.14%
O=C(/C=C/c1cccc([N+](=O)[O-])c1)n1cnc2ccccc21 | inconclusive: 3.16 µM [inhibitor, partial curve] | –
COc1cc(NC(=NS(=O)(=O)c2ccccc2)c2ccccc2)ncn1 | – | inactive: 0.65%
CCOC(=O)Nc1ccc2c(c1)N(C(=O)CCCl)c1ccccc1[S@]2=O | active: 7.08 µM | –
COc1ccc(NC(=O)CN(C)CC(=O)NC2CCC(C)CC2)cc1 (stereo not drawn) | – | inactive: -18.6%
CN1CCN(C(=O)c2ccc(CNS(=O)(=O)c3cccc(Cl)c3)cc2)CC1 | – | inactive: -6.08%
CC1CCCN(CCC(=O)c2ccc(Br)cc2)C1 (stereo not drawn) | inconclusive: 35.5 µM [inhibitor, single point] | –

SMILES | Potency | activity, negative = inhibition
CC(=O)N1CCc2c(sc3c2c(=O)n(CCc2ccccc2)c(=O)n3Cc2ccc(F)cc2)C1 | active: 11.2 µM | –
CC#CC(=O)N1CCC(C(=O)Nc2ccc(Oc3ccccc3)nc2)CC1 | – | inactive: -17%
COc1ccc(NC(=O)C23CC4CC(C2)CC(n2cnc(Br)n2)(C4)C3)c(C)c1 | – | inactive: -10.1%
Cc1ccc(OCC(COCc2ccccc2)NC(C)C)cc1 (stereo not drawn) | – | inactive: 5.1%
Cc1ccc(Nc2ccc(N3CCN(C(=O)c4cccc([N+](=O)[O-])c4)CC3)nn2)cc1 | inconclusive: 6.31 µM [inhibitor, partial curve] | –
Cc1cccc(NC(=O)c2nc[nH]c2C(=O)N[C@@H](CC(C)C)C(=O)OCc2ccccc2)c1 | inconclusive: 0.708 µM [inhibitor, full curve, poor fit] | –
CCCC12CN3CC(CCC)(CN(C1)C3c1ccc(OCc3ccccc3)cc1)C2=O (stereo not drawn) | inconclusive: 0.1 µM [inhibitor, full curve, poor fit] | –
COc1cccc(Nc2nc(NCC3CCCO3)c3ccccc3n2)c1 (stereo not drawn) | active: 6.31 µM | –
COC(=O)C1=C(N)Oc2cc(C)n(CC3CCCO3)c(=O)c2C1c1ccc(Cl)cc1 (stereo not drawn) | inconclusive: 1.26 µM [inhibitor, partial curve] | –
Cc1cccc(C)c1NC(=O)CCSc1nc(-c2ccc3c(c2)OCO3)cc(C(F)(F)F)n1 | – | inactive: 8.41%
CCCOC(=O)c1ccc(Oc2cn[nH]c2-c2ccc(O)cc2O)cc1 | inconclusive: 14.1 µM [inhibitor, single point] | –
COc1cccc(C(C)(O)c2nc(-c3cccc(C(C)C)c3)cs2)c1 (stereo not drawn) | inconclusive: 35.5 µM [inhibitor, single point] | –
CC(C)c1ccccc1N=C1SCCN1C1CCS(=O)(=O)C1 (stereo not drawn) | inconclusive: 1.58 µM [inhibitor, partial curve] | –
Fc1ccccc1C(NCCc1ccc(Cl)cc1)c1nnc(-c2ccccc2)o1 (stereo not drawn) | inconclusive: 11.2 µM [inhibitor, partial curve, poor fit] | –
C=CCN1C(=O)C(O)(CC(=O)c2ccc(-n3cccc3)cc2)c2ccccc21 (stereo not drawn) | – | inactive: 7.46%
O=C1/C(=C/c2ccc(F)cc2)SC(=S)N1NS(=O)(=O)c1ccccc1 | inconclusive: 2.51 µM [inhibitor, partial curve, poor fit] | –
COc1cccc(N2CCN(C(=O)c3ccc(CS(=O)c4ccccc4Cl)o3)CC2)c1 (stereo not drawn) | active: 11.2 µM | –
O=C(c1ccc(Cl)cc1)c1cnc(-c2ccccc2)s1 | inconclusive: 3.16 µM [inhibitor, single point] | –
CC(C)NC(=O)NC(=O)CSc1ncc(C(F)(F)F)cc1Cl | inconclusive: 0.355 µM [inhibitor, full curve, poor fit] | –
CCOc1ccc(NC(=O)c2ccc(NC(=O)c3ccc(CN4CCOCC4)cc3)cc2)cc1 | – | inactive: -10.2%
CCOC(=O)NCc1ccc(S(=O)(=O)Nc2c(C)cccc2C)cc1 | inconclusive: 35.5 µM [inhibitor, single point] | –
N=c1n(CCN2CCCCC2)c2ccccc2n1CC(=O)c1cccc([N+](=O)[O-])c1 | inconclusive: 20 µM [inhibitor, partial curve, poor fit] | –
CCC1=C(c2ccc(C)cc2)S(=O)(=O)N=C1N1CCC(C(=O)Nc2ccccc2C(=O)OC)CC1 | inconclusive: 35.5 µM [inhibitor, single point] | –

SMILES | Potency | activity, negative = inhibition
Cn1c(/C(C#N)=C(\O)c2cc(Cl)sc2Cl)nc2ccccc21 | inconclusive: 0.355 µM [inhibitor, full curve, poor fit] | –
CC(=O)Nc1ccc2c(c1)Cc1c-2cc(Br)c(N)c1Br | – | inactive: 18.2%
COc1ccc(CNC(=O)CCc2c(C)nn(-c3ccc(N4CCOCC4)nn3)c2C)c(OC)c1 | inconclusive: 2 µM [inhibitor, partial curve] | –
CN(C)c1ccc(C(CNC(=O)c2ccc(C(C)(C)C)cc2)N2CCCC2)cc1 (stereo not drawn) | inconclusive: 35.5 µM [inhibitor, single point] | –
Nc1ccccc1-c1nnc(SCC(=O)Nc2ccccc2OC(F)F)[nH]c1=O | – | inactive: 7.5%
Cc1cccc(NC(=O)C2CCCN2S(=O)(=O)c2cccc3nsnc23)c1C (stereo not drawn) | inconclusive: 22.4 µM [inhibitor, partial curve, poor fit] | –
FC(F)(F)c1cccc(-c2nnc3ccc(C(F)(F)F)cn23)c1 | – | inactive: -2.44%
CC(C)c1ccc(NS(=O)(=O)c2ccc3c(c2)oc(=O)n3C)cc1 | – | inactive: -0.738%
CCCCN1CC(COc2ccccc2)Oc2cccc(F)c2S1(=O)=O (stereo not drawn) | inconclusive: 11.2 µM [inhibitor, partial curve, poor fit] | –
CCc1ccc(NC(=O)CSc2ccc(-c3sc(C)nc3C)nn2)cc1 | inconclusive: 10 µM [inhibitor, single point] | –
CCN(CC)c1ccc(S(=O)(=O)N2CCOCC2)cc1NC(=O)COC(=O)c1ccco1 | – | inactive: -0.056%
CCCCn1c(N)c(N(CCOC)C(=O)C2CCN(c3ncnc4sc(C)c(C)c34)CC2)c(=O)[nH]c1=O | – | inactive: 2.43%
Cc1cc(O)c(C=O)c2c1C(=O)Oc1c(CO)c(O)c3c(c1O2)C(O)OC3=O (stereo not drawn) | inconclusive: 14.1 µM [inhibitor, single point] | –
CC(C)(C)c1ccc(CC(=O)N2CCC2(C)C(=O)Nc2cccc3ccccc23)cc1 (stereo not drawn) | inconclusive: 22.4 µM [inhibitor, single point] | –
CN(Cc1ccccc1)C(=O)CSc1c2c(nc3ccc(Cl)cc13)CCCC2 | inconclusive: 11.2 µM [inhibitor, partial curve, poor fit] | –
CCc1cccc(NC(=O)COC(=O)c2ccccc2OCc2ccccc2Br)c1 | inconclusive: 1.58 µM [inhibitor, partial curve, poor fit] | –
Cc1ccc(-c2c(CN3CCN(c4cccc(C)c4C)CC3)csc2C)cc1 | inconclusive: 35.5 µM [inhibitor, single point] | –
CC(NC(=O)c1ccccc1NC(=O)CN1CCN(c2ccccc2O)CC1)c1ccccc1 (stereo not drawn) | inconclusive: 11.2 µM [inhibitor, partial curve, poor fit] | –
CCN(CC)C(=O)COc1ccc(/C(C)=N/Nc2ncc(Cl)cc2Cl)cc1 | inconclusive: 35.5 µM [inhibitor, single point] | –
COc1ccc(-n2c(SC(C)C(=O)N3CCOCC3)nc3ccccc3c2=O)cc1 (stereo not drawn) | inconclusive: 2.51 µM [inhibitor, full curve, poor fit] | –
Cc1ccc(-n2cc(CNCCCn3cccn3)c(-c3cccc(C)c3)n2)cc1 | inconclusive: 35.5 µM [inhibitor, single point] | –
CC1C(=O)N(Cc2cn(CCC3OCCO3)nn2)CCS(=O)(=O)N1Cc1ccc(-c2ccc(Cl)cc2)cc1 (stereo not drawn) | inconclusive: 12.6 µM [inhibitor, partial curve, poor fit] | –
